Data from the supplement of paper PMC7125110.
± gives the standard error. Variants at the floor of the assay are shown more often than the library holds them.

B1: glmS ribozyme (parent)
chain: AUAAAAGCGCCAGAACUACAGAAAUGUAGUUGACGAGGAGGAGGUUUAUCGAAUUUUCGGCGGAUGCCUCCAAA

Variants of: B1
Experiment: self-cleavage kobs at 160 uM GlcN6P; higher = faster cleavage; RNA array
Details: with glucosamine-6-phosphate
Summary of the method: (§1)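 Sequenced MiSeq chips were the platform: E. coli RNA polymerase transcribed barcoded ribozyme variants on them in situ, and a hybridised Cy3 probe tracked these at 37 °C. After glucosamine-6-phosphate (40 μM to 10 mM) in HEPES/KCl/Mg(OAc)2 buffer was flowed in, tiles were imaged over ~14 h. Signals normalised to baseline and to non-cleaving reference variants were reduced to per-tile medians and fit to one- or two-exponential decays to obtain kobs. kcat and KM were derived through weighted Michaelis–Menten fits across concentrations.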

| Variant | self-cleavage kobs at 160 uM GlcN6P [s⁻¹] |
| --- | --- |
| G41U C67U | < 1e-05 |
| G29A G41U U54G U65G | < 1e-05 |
| C16A C34U C71U | < 1e-05 |
| G13U G29A G66C | < 1e-05 |
| A15C A36G G38U | < 1e-05 |
| A39G C50G | 0.000247 ± 0.00011 |
| G35A U54C C70U | < 1e-05 |
| C16U G62U | < 1e-05 |
| A15G A39G G51U U54G | < 1e-05 |
| G35A G63A | < 1e-05 |
| U30C G43C C68G | 7.51e-05 ± 2.2e-05 |
| C34G G38A | < 1e-05 |
| G37A A42C U46C | < 1e-05 |
| A14G A42C | < 1e-05 |
| G29C A39U G59A | < 1e-05 |
| C16G U57A | < 1e-05 |
| G35A C67G C70A C71G | < 1e-05 |
| A15U U30G G59C U65A | < 1e-05 |
| G32U G41C A48U | < 1e-05 |
| U31A A33C | < 1e-05 |

| Variant | self-cleavage kobs at 160 uM GlcN6P [s⁻¹] |
| --- | --- |
| G29A U31A U45G | < 1e-05 |
| C16A U49C A64C | < 1e-05 |
| G40U A42C A48G | < 1e-05 |
| G40C G51C | < 1e-05 |
| U31G G32C G38A | < 1e-05 |
| G32C A39U | < 1e-05 |
| A33U G62U | < 1e-05 |
| U56A G63C | < 1e-05 |
| A14C A42U | < 1e-05 |
| U30G G32C U57A | < 1e-05 |
| G66U C71G | < 1e-05 |
| G29U G32U A42G C71A | < 1e-05 |
| C34A A39U C58A G63U | < 1e-05 |
| A39U G41A G62U | < 1e-05 |
| G37U G59C G63U | < 1e-05 |
| G32A A52C G63A A64C | < 1e-05 |
| A42C U45G C68U | < 1e-05 |
| U45A C67A C68G | < 1e-05 |
| A15U G51A G60A | < 1e-05 |
| A15U A33C G40U | < 1e-05 |

| Variant | self-cleavage kobs at 160 uM GlcN6P [s⁻¹] |
| --- | --- |
| U47C C50U | < 1e-05 |
| U49A A64G | < 1e-05 |
| A48G G59A | < 1e-05 |
| G32U G38U U54G | < 1e-05 |
| C16A U46G A48G C50U C67A | < 1e-05 |
| G26A C70A | 0.000106 ± 2.6e-05 |
| G35U U56A C61A | < 1e-05 |
| U31G G37A A39U U46G G51A | < 1e-05 |
| G38C A48U C67A | < 1e-05 |
| C50G A52G | 3.58e-05 ± 1.7e-05 |
| G29U U30G A39U | 8.86e-05 ± 2.1e-05 |
| U31A G60U C70G | < 1e-05 |
| U46C U49A C68G C71A | < 1e-05 |
| U30A U31C G60A C71A | < 1e-05 |
| G38C C70U C71U | < 1e-05 |
| C34U A39C | < 1e-05 |
| A39U G51U G62U C71A | < 1e-05 |
| U31G U47G A48G | < 1e-05 |
| U45G A52U A53G | < 1e-05 |
| A48C G63C | < 1e-05 |

Variants of: B1
Experiment: self-cleavage kobs at 10000 uM GlcN6P; higher = faster cleavage; RNA array
Details: with glucosamine-6-phosphate
Summary of the method: as §1

| Variant | self-cleavage kobs at 10000 uM GlcN6P [s⁻¹] |
| --- | --- |
| G41U C67U | 2.83e-05 ± 1.1e-05 |
| C8U A15U C34U G60A | < 1e-05 |
| G7U A52U U55C | < 1e-05 |
| C16U G62U | < 1e-05 |
| C34G G38A | < 1e-05 |
| G9A G13C G51A | < 1e-05 |
| A33U G62U | < 1e-05 |
| C10G A36C G37C G40C G60U G66U | < 1e-05 |
| C11A A33C A53C A64C | < 1e-05 |
| G35U U56A C61A | < 1e-05 |
| C10U A42U G51U C61G C71U | < 1e-05 |
| U46C U49A C68G C71A | < 1e-05 |
| C34U A39C | < 1e-05 |

Variants of: B1
Experiment: self-cleavage kobs at 2500 uM GlcN6P; higher = faster cleavage; RNA array
Details: with glucosamine-6-phosphate
Summary of the method: as §1

| Variant | self-cleavage kobs at 2500 uM GlcN6P [s⁻¹] |
| --- | --- |
| C8U A15U C34U G60A | < 1e-05 |
| G7U A52U U55C | < 1e-05 |
| C10A G21U C34U G38A A48U U54A C71U | < 1e-05 |
| A6C G7A G66C | < 1e-05 |
| G9C U55C C70G | < 1e-05 |
| A15C A36G G38U | < 1e-05 |
| A6G C10A A12C U54G U57G | < 1e-05 |
| G35A U54C C70U | < 1e-05 |
| G7U U47G A52U | < 1e-05 |
| C16U G62U | < 1e-05 |
| C10A G13U G43U | < 1e-05 |
| A15G A39G G51U U54G | < 1e-05 |
| C10A G13U U56A G62U | < 1e-05 |
| G9C A15U G66C C70G | < 1e-05 |
| A6C G29A A36C G62A A64U | < 1e-05 |
| A6G C10U G35C U49C | < 1e-05 |
| G9A A12U A48C | < 1e-05 |
| G37A A42C U46C | < 1e-05 |
| A6C A12G G37A | < 1e-05 |
| G9A G13C G51A | < 1e-05 |
| G9C A48U A53U G59C C71G | < 1e-05 |
| C11A A36U A52G A53G G63A | < 1e-05 |
| G7U G38C G43C A64U U69G | < 1e-05 |

| Variant | self-cleavage kobs at 2500 uM GlcN6P [s⁻¹] |
| --- | --- |
| C10G G29U A36C A39C U65A | < 1e-05 |
| A15U U30G G59C U65A | < 1e-05 |
| C10A G40C U55A C58U U69G C70G | < 1e-05 |
| C10G U30A C61U | < 1e-05 |
| A6U A36G G37U | < 1e-05 |
| A6C A14C G60A G63A | < 1e-05 |
| A6G U31C A33C | < 1e-05 |
| C11A G38C G62A | < 1e-05 |
| A6C A14G G41A C68U | < 1e-05 |
| C11A G41A A64G | < 1e-05 |
| A6U G9C U65G | < 1e-05 |
| G40C G51C | < 1e-05 |
| U31G G32C G38A | < 1e-05 |
| C10A A14G C34G A42G U47G G62U C68A | < 1e-05 |
| A6C G7U U31A G37U | < 1e-05 |
| A33U G62U | < 1e-05 |
| U56A G63C | < 1e-05 |
| A6U G40C C70G | < 1e-05 |
| G7C U30C A39C | < 1e-05 |
| G7U A12C A36U A39C G51A | < 1e-05 |
| C8U A36U A42U G43A G62U A64U | < 1e-05 |
| C10G A36C G37C G40C G60U G66U | < 1e-05 |
| A39U G41A G62U | < 1e-05 |

| Variant | self-cleavage kobs at 2500 uM GlcN6P [s⁻¹] |
| --- | --- |
| C11A U31G A33U G37U U56A | < 1e-05 |
| A6C A39C G60U | < 1e-05 |
| A6U C10A U31A U46C A48C | < 1e-05 |
| G7A A15C A48C G62C | < 1e-05 |
| C10U G13C C16U | < 1e-05 |
| A6U G37A C58U | < 1e-05 |
| G9A C34U G35U G37C | < 1e-05 |
| G37U G59C G63U | < 1e-05 |
| C8G G29U A36C A48G C70U | < 1e-05 |
| C11A G32U G44C A48U G51A | < 1e-05 |
| C8U G29C G60U | < 1e-05 |
| G9A G29C G37U A48G A52C C70G | < 1e-05 |
| C11A A33C A53C A64C | < 1e-05 |
| G7A G29U U65C | < 1e-05 |
| C8A A14U A42U | < 1e-05 |
| G32A A52C G63A A64C | < 1e-05 |
| G7U G41A A64U | < 1e-05 |
| G7A G32U A52C C61G C67U | < 1e-05 |
| A42C U45G C68U | < 1e-05 |
| G9A C11G G32A G59U | < 1e-05 |
| C10U C67G C68U | 0.000126 ± 4.8e-05 |
| C8A G13U U30C | < 1e-05 |
| A6U C8G C34U A53C G66C C67A | < 1e-05 |

| Variant | self-cleavage kobs at 2500 uM GlcN6P [s⁻¹] |
| --- | --- |
| C8G A14U G26U C58U | < 1e-05 |
| A48G G59A | 6.29e-05 ± 1.8e-05 |
| G9U A12G A33C G35U C71A | < 1e-05 |
| A6G G43A U49A G59U | < 1e-05 |
| C8A C11A U57C | < 1e-05 |
| G9C U31A G38U U56C | < 1e-05 |
| G9A A14C A15G G35C A39G A52C A53G | < 1e-05 |
| C10A A48C A64U | < 1e-05 |
| G38C A48U C67A | < 1e-05 |
| C8U C10U A15U G41A U57G | < 1e-05 |
| G7C G9C C61G G62U | < 1e-05 |
| C8U G9U G13A G37A G41A | < 1e-05 |
| C10U A42U G51U C61G C71U | < 1e-05 |
| A6U G9A C61A | < 1e-05 |
| C50G A52G | 3.29e-05 ± 1.4e-05 |
| A6U U55C C61A | < 1e-05 |
| C8G G29C G38C U57C | < 1e-05 |
| G9U A36G G51C A64G | < 1e-05 |
| G29U U30G A39U | 0.0013 ± 0.00029 |
| G9U G29A A33U | < 1e-05 |
| A6C C8A U31G G38C | < 1e-05 |
| G9U A14G U45A C67A | < 1e-05 |
| G7A G44U G51A | < 1e-05 |

| Variant | self-cleavage kobs at 2500 uM GlcN6P [s⁻¹] |
| --- | --- |
| G7A G51A C71G | < 1e-05 |
| G7A C34U G40U C67U | < 1e-05 |
| C10U A48C C58G | < 1e-05 |
| G9U A12C G38U A48C C68A | < 1e-05 |
| U46C U49A C68G C71A | < 1e-05 |
| C10U A14C G41U U56C | < 1e-05 |
| C10A G13C G35U G41C C67U | < 1e-05 |
| A6U C16A G29A A42G C71A | < 1e-05 |
| A39U G51U G62U C71A | < 1e-05 |
| G9U G13C U65A | < 1e-05 |
| G7U U30C G40C A53G U56A | < 1e-05 |
| C10G G62U C70G | < 1e-05 |
| C8G G32A G40C U45G G59U C71G | < 1e-05 |
| C8G G29A U56C G62A | < 1e-05 |
| C10A G29A A33G A48U | < 1e-05 |
| G9A A36C U45G G51C A64G | < 1e-05 |
| C10A G37A A53C | < 1e-05 |
| A6U G13A A14C A42C G60A C71A | < 1e-05 |
| C8G U31C A33C U46G G60A | < 1e-05 |
| C8A C16U A33U C68U | < 1e-05 |
| A48C G63C | < 1e-05 |
